Experimental data as given in article doi:10.1101/708180 (bioRxiv, 2019).

Assays:
NMR 15N relaxation = target: the molecule itself; test: NMR 15N relaxation
SEC-MALS = target: the molecule itself; test: SEC-MALS

Row | Protein | stoichiometry N (NMR 15N relaxation) | stoichiometry N (SEC-MALS)
1 | cHSP27, isolated α-crystallin domain of HSP27 ([…]), oxidized disulfide-linked dimer (domain or fragment) not shown | 2 | –
2 | HSP27 (HSPB1) P182L variant, full length (natural protein) not shown | – | ~620 subunits
3 | cHSP27 with the C137S mutation (domain or fragment) not shown | – | 2
